The other results are listed elsewhere or left out. Most values come without repeats; read them as rough.
Experiments:
Assay in all cases: cell count relative to DMSO control; melanoma cells; higher = more viable cells
Conditions in all cases: library dose: low library concentration; 72 h
MZ2-MEL = system: MZ2-MEL
MeWo = system: MeWo
RPMI7951 = system: RPMI7951
RVH-421 = system: RVH-421
SkMel28 = system: SkMel28
SkMel2 = system: SkMel2
SkMel30 = system: SkMel30
SkMel5 = system: SkMel5
UACC257 = system: UACC257
UACC62 = system: UACC62
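Note: cell number obtained by counting DAPI-stained nuclei in high-throughput microscope images with image analysis software, screen run in 1,536-well plates.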

SMILES | cell count (MZ2-MEL) [%] | cell count (MeWo) [%] | cell count (RPMI7951) [%] | cell count (RVH-421) [%] | cell count (SkMel28) [%] | cell count (SkMel2) [%] | cell count (SkMel30) [%] | cell count (SkMel5) [%] | cell count (UACC257) [%] | cell count (UACC62) [%]
Nc1ccn([C@@H]2O[C@H](CO)[C@@H](O)C2(F)F)c(=O)n1 [gemcitabine] + CO[C@@H]1[C@H](N(C)C(=O)c2ccccc2)C[C@H]2O[C@]1(C)n1c3ccccc3c3c4c(c5c6ccccc6n2c5c31)C(=O)NC4 [Midostaurin] (first compound 0.0004 µM, partner dose 0.08 µM) | 103 | 90 | 88.5 | 118 | 104 | 92.5 | 123 | 99.4 | 77.2 | 99.8
Nc1ccn([C@@H]2O[C@H](CO)[C@@H](O)C2(F)F)c(=O)n1 [gemcitabine] + COc1ccc(COc2ccc(Cc3cnc(N)nc3N)cc2OC)cc1 [GW2580] (first compound 0.0004 µM, partner dose 1 µM) | 101 | 107 | 102 | 95.4 | 95.9 | 107 | 122 | 101 | 87.2 | 106
CC(=O)c1c(C)c2cnc(Nc3ccc(N4CCNCC4)cn3)nc2n(C2CCCC2)c1=O [palbociclib] + COc1ccc(-c2ccc3c(N4CCOCC4)nc(N4C[C@@H](C)O[C@@H](C)C4)nc3n2)cc1CO [KU0063794] (first compound 0.04 µM, partner dose 0.02 µM) | 90.6 | 69.4 | 91.6 | 73.4 | 69.5 | 83.2 | 69.7 | 90.5 | 87.3 | 78.1
CC(=O)c1c(C)c2cnc(Nc3ccc(N4CCNCC4)cn3)nc2n(C2CCCC2)c1=O [palbociclib] + O=C1NC(=O)/C(=C/c2ccc(-c3ccc(F)cc3O)o2)S1 [AS252424] (first compound 0.04 µM, partner dose 1 µM) | 78 | 72.9 | 84.3 | 94.8 | 80.4 | 78.2 | 59.2 | 72.4 | 63.7 | 73.4
Nc1ccn([C@@H]2O[C@H](CO)[C@@H](O)C2(F)F)c(=O)n1 [gemcitabine] + O=C1NC(=O)/C(=C/c2ccc(-c3ccc(F)cc3O)o2)S1 [AS252424] (first compound 0.0004 µM, partner dose 1 µM) | 93.3 | 107 | 93.6 | 89.4 | 103 | 103 | 130 | 104 | 83.1 | 94
Nc1ccn([C@@H]2O[C@H](CO)[C@@H](O)C2(F)F)c(=O)n1 [gemcitabine] + COc1ccc2c(c1)CCC1C2CCC2(C)C(NCCCCCCN3C(=O)C=CC3=O)CCC12 [U73122] (first compound 0.0004 µM, partner dose 0.4 µM) | 97.6 | 101 | 82.5 | 92 | 117 | 97.4 | 93.9 | 112 | 98.6 | 79.5
Nc1ccn([C@@H]2O[C@H](CO)[C@@H](O)C2(F)F)c(=O)n1 [gemcitabine] + COc1ccc(-c2ccc3c(N4CCOCC4)nc(N4C[C@@H](C)O[C@@H](C)C4)nc3n2)cc1CO [KU0063794] (first compound 0.0004 µM, partner dose 0.02 µM) | 88.8 | 93.2 | 81.7 | 94.7 | 110 | 102 | 95.1 | 102 | 96.7 | 105
CC(=O)O[C@@]12CO[C@@H]1C[C@H](O)[C@@]1(C)C(=O)[C@H](O)C3=C(C)[C@@H](OC(=O)[C@H](O)[C@@H](NC(=O)OC(C)(C)C)c4ccccc4)C[C@@](O)([C@@H](OC(=O)c4ccccc4)[C@H]21)C3(C)C [Docetaxel] + COc1cc(N2CCC(N3CCN(C)CC3)CC2)ccc1Nc1ncc(Cl)c(Nc2ccccc2S(=O)(=O)C(C)C)n1 [NVP-TAE684] (first compound 0.0001 µM, partner dose 0.08 µM) | 41.5 | 40.6 | 35.9 | 61.5 | 35.2 | 41.2 | 34.4 | 78.2 | 39.5 | 42
CC(=O)O[C@@]12CO[C@@H]1C[C@H](O)[C@@]1(C)C(=O)[C@H](O)C3=C(C)[C@@H](OC(=O)[C@H](O)[C@@H](NC(=O)OC(C)(C)C)c4ccccc4)C[C@@](O)([C@@H](OC(=O)c4ccccc4)[C@H]21)C3(C)C [Docetaxel] + O=C(O)c1ccc(-c2c[nH]c3ncc(-c4ccccc4)cc23)cc1C1CCCC1 [GSK650394] (first compound 0.0001 µM, partner dose 0.16 µM) | 46.8 | 42 | 35 | 62.8 | 29.5 | 42.6 | 35.1 | 86.2 | 37 | 42.5
CC(=O)O[C@@]12CO[C@@H]1C[C@H](O)[C@@]1(C)C(=O)[C@H](O)C3=C(C)[C@@H](OC(=O)[C@H](O)[C@@H](NC(=O)OC(C)(C)C)c4ccccc4)C[C@@](O)([C@@H](OC(=O)c4ccccc4)[C@H]21)C3(C)C [Docetaxel] + Cc1ccc(NC(=O)c2cccc(N(C)C)c2)cc1NC(=O)c1ccc(O)cc1 [ZM336372] (first compound 0.0001 µM, partner dose 2 µM) | 46 | 39.5 | 41.8 | 78.2 | 50.1 | 54.2 | 28.7 | 87.3 | 48.7 | 40
CC(=O)c1c(C)c2cnc(Nc3ccc(N4CCNCC4)cn3)nc2n(C2CCCC2)c1=O [palbociclib] + CCN(CC)CCCCNc1ncc2cc(-c3cc(OC)cc(OC)c3)c(NC(=O)NC(C)(C)C)nc2n1 [PD173074] (first compound 0.04 µM, partner dose 0.1 µM) | 82.3 | 81 | 77.4 | 74.1 | 74.1 | 76.8 | 74.9 | 66.8 | 72.9 | 75.6
Nc1ccn([C@@H]2O[C@H](CO)[C@@H](O)C2(F)F)c(=O)n1 [gemcitabine] + CC(C)(C)c1cnc(CSc2cnc(NC(=O)C3CCNCC3)s2)o1 [SNS-032] (first compound 0.0004 µM, partner dose 0.01 µM) | 92.2 | 112 | 77.1 | 83.9 | 102 | 97.2 | 108 | 124 | 114 | 85.8
Nc1nc(F)nc2c1ncn2[C@@H]1O[C@H](CO)[C@@H](O)[C@@H]1O [fludarabine] + COc1ccc(COc2ccc(Cc3cnc(N)nc3N)cc2OC)cc1 [GW2580] (first compound 0.2 µM, partner dose 1 µM) | 86.8 | 34.7 | 103 | 157 | 77.2 | 5.76 | 23 | 56.5 | 89.3 | 92.6
Nc1ncn([C@H]2C[C@H](O)[C@@H](CO)O2)c(=O)n1 [decitabine] + CC1(C)NC(=O)N(c2ccc([N+](=O)[O-])c(C(F)(F)F)c2)C1=O [nilutamide] (first compound 0.1 µM, partner dose 1 µM) | 87.1 | 103 | 86.6 | 92.2 | 96.4 | 98.5 | 91.4 | 88 | 89.8 | 85.2
CC(=O)c1c(C)c2cnc(Nc3ccc(N4CCNCC4)cn3)nc2n(C2CCCC2)c1=O [palbociclib] + CC(C)CCN1c2nc(Nc3cc(F)c(O)c(F)c3)ncc2N(C)C(=O)C1C [BID1870] (first compound 0.04 µM, partner dose 0.2 µM) | 79.6 | 71.6 | 81.7 | 65.5 | 57.2 | 71.7 | 65.7 | 78.3 | 60.2 | 74.4
Nc1ncn([C@H]2C[C@H](O)[C@@H](CO)O2)c(=O)n1 [decitabine] + O=C(CCCCCCC(=O)Nc1ccccc1)NO [vorinostat] (first compound 0.1 µM, partner dose 0.08 µM) | 88.2 | 99.4 | 87.8 | 101 | 85.5 | 94.2 | 89.5 | 105 | 84 | 70.6
Nc1ccn([C@@H]2O[C@H](CO)[C@@H](O)C2(F)F)c(=O)n1 [gemcitabine] + O=C(O)C(=O)Nc1sc2c(c1C(=O)O)CCNC2 [TCS401] (first compound 0.0004 µM, partner dose 1.66667 µM) | 95.3 | 98.7 | 95.5 | 18.6 | 107 | 112 | 86.9 | 97.6 | 88.8 | 87.7
Nc1ccn([C@@H]2O[C@H](CO)[C@@H](O)C2(F)F)c(=O)n1 [gemcitabine] + NCC(=O)Nc1ccc(-n2nc(C(F)(F)F)cc2-c2ccc3c(ccc4ccccc43)c2)cc1 [OSU03012] (first compound 0.0004 µM, partner dose 1 µM) | 85.8 | 55.2 | 91 | 73.3 | 84.7 | 78.7 | 57.3 | 101 | 96.3 | 91.9
CC(=O)c1c(C)c2cnc(Nc3ccc(N4CCNCC4)cn3)nc2n(C2CCCC2)c1=O [palbociclib] + COc1ccc2c(c1)CCC1C2CCC2(C)C(NCCCCCCN3C(=O)C=CC3=O)CCC12 [U73122] (first compound 0.04 µM, partner dose 0.4 µM) | 92.3 | 104 | 69.6 | 112 | 110 | 97.4 | 82.5 | 90.8 | 89.8 | 95.8
